Test results taken from US20230416360A1 (SIMCERE ZAIMING PHARMACEUTICAL, published 2023).

Key:
[1] = biological target: T1, cynomolgus monkey CD22-ECD-His (cynomolgus monkey); experiment: SPR (Biacore), antibody captured on Protein A, cyno CD22-ECD-His analyte
T1 construct: extracellular domain; Bought; also called cynoCD22
Description: Sample buffer and running buffer were HBS-EP+(10 mM HEPES, 150 mM NaCl, 3 mM EDTA, 0.05% surfactant P20) (GE Healthcare; BR-1006-69). The flow-through cell was set to 25° C. The sample block was set to 16° C. Both were pretreated with the running buffer. In each cycle, the antibody to be tested was first captured with a Protein A chip, then a single concentration of CD22 antigen protein was injected. The binding and dissociation process of the antibody and the antigen protein was recorded, and finally Glycine pH 1.5 (GE Healthcare; BR-1003-54) was used to complete chip regeneration. […] The concentration started from 200 nM (see the detailed results for the actual concentration in the test) and was diluted at 1:1, making a total of 5 concentrations. The dissociation phase was monitored for up to 600 s and was triggered by switching from sample solution to running buffer. The surface was regenerated by washing with a 10 mM of glycine solution (pH 1.5) for 30 s at a flow rate of 30 μL/min. Bulk refractive index difference was corrected by subtracting the response obtained from the goat anti-human Fc surface. Blank injection was also subtracted (=double reference). For calculation of apparent KD and other kinetic parameters, Langmuir 1:1 model was used.

human CD22-ECD-His = biological target: T2, human CD22-ECD-His (human, UniProt P20273 20-687); experiment: ELISA on coated human CD22-ECD-His
T2 construct: Made in HEK293E, purified on nickel column; also called hCD22-ECD-His; recombinant human CD22-ECD His; not shown: His tag
T2 sequence: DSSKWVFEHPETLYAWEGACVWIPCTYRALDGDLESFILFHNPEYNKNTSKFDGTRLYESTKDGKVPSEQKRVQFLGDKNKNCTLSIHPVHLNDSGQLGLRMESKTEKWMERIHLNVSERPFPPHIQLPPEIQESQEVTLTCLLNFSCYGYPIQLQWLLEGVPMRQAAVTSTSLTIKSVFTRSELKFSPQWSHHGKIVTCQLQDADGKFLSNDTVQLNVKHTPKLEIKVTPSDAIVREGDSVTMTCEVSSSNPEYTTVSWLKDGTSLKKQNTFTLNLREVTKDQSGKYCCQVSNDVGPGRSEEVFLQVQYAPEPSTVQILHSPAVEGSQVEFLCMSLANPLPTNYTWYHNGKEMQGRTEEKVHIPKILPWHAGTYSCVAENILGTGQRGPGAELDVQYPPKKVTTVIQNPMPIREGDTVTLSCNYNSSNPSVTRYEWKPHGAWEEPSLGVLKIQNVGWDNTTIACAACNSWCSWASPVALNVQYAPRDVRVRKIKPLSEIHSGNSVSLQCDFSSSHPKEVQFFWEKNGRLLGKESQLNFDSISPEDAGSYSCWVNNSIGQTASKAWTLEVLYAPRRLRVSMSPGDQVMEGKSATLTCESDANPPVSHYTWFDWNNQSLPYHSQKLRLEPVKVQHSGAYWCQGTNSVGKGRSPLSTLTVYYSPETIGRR

human CD22 domain5-7-His = biological target: T3, human CD22 domain5-7-His (human, UniProt P20273 414-687); experiment: ELISA on coated human CD22 domain5-7-His, top panel
T3 construct: Proximal end of membrane fragment; also called hCD22 domain5-7-His; not shown: His tag
T3 sequence: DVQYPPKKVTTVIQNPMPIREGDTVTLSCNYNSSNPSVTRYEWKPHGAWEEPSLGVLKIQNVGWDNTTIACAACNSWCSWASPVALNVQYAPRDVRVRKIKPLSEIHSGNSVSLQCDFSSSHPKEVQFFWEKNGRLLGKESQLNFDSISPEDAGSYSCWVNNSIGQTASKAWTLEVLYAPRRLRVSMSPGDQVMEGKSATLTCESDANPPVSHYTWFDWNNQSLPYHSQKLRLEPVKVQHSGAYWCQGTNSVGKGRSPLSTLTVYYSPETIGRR

murine CD22-ECD-His = biological target: T4, murine CD22-ECD-His (mouse, UniProt P35329 22-708); experiment: ELISA on coated murine CD22-ECD-His, upper panel
T4 construct: extracellular domain; Bought; also called mouse CD22; murine CD22 protein
T4 sequence (looked up): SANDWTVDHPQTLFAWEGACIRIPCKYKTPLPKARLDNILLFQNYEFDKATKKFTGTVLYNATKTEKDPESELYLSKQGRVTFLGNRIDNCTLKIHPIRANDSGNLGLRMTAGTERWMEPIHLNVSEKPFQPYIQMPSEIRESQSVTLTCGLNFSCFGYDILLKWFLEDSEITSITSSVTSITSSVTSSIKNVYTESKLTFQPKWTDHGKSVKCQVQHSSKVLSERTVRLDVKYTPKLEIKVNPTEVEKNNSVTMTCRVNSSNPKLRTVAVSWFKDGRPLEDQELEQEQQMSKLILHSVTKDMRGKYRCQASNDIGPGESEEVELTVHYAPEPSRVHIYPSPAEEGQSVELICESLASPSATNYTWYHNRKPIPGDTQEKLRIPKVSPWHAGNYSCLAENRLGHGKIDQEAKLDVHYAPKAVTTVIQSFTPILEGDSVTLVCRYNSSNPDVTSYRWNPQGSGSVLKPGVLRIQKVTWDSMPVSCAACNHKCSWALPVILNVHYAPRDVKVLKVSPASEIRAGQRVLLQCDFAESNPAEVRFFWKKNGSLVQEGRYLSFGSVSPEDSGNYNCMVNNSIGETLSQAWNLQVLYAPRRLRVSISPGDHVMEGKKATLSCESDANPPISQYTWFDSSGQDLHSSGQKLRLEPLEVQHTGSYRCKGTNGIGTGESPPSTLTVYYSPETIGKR
Description: The plate was sealed with plastic film and incubated overnight at 4° C., the plate was washed 2 times with PBS the next day, and then a blocking solution [PBS+2% (w/w) BSA] was added for blocking at room temperature for 2 hours. […] After incubation at 37° C. for 2 hours, the plate was washed 3 times with PBS. HRP (horseradish peroxidase)-labeled secondary antibody (purchased from Sigma, catalog number: A0170) was added, and incubated at 37° C. for 2 hours, and the plate was washed 5 times with PBS. TMB substrate was added at 50 μl/well, and incubated at room temperature for 30 minutes, then a stop solution (1.0 N HCl) was added at 50 μl/well.

B1: HA22 scFv-hFc (Fc fusion)
chain: EVQLVESGGGLVKPGGSLKLSCAASGFAFSIYDMSWVRQTPEKCLEWVAYISSGGGTTYYPDTVKGRFTISRDNAKNTLYLQMSSLKSEDTAMYYCARHSGYGTHWGVLFAYWGQGTLVTVSAGGGGSGGGGSGGGGSDIQMTQTTSSLSASLGDRVTISCRASQDISNYLNWYQQKPDGTVKLLIYYTSILHSGVPSRFSGSGSGTDYSLTISNLEQEDFATYFCQQGNTLPWTFGCGTKLEIK[human IgG1 Fc with changes cut from this listing]
B1 was tested, and the koff [1] was 0.000376 s⁻¹, the kon [1] was 12700 M⁻¹ s⁻¹ and the “EC50 (read off the curve)” value (human CD22-ECD-His) was ~0.3 nM.

B2: S002-NB151-51 VHH-Fc (Fc fusion)
chain: QVQLVESGGGLVQAGGSLRLSCAASGITSDDYAIGWFRQAPGKEREGVSCMYSSDGSTYYADSVKGRFTISRDNAKNTVYLQMNSLRPEDTAVYHCAAGPWCFVTGVGREEWGQGTQVTVSS[human IgG1 Fc with changes cut from this listing]
notes: VHH cloned into vector BI3.4-huIgG1 (hinge and human IgG1 Fc), made in HEK293E; also called 5002-NB151-51
For B2, the binding result (human CD22 domain5-7-His) was “no binding (tested: 100 nM)”, the Kd [1] was 0.507 nM and the koff [1] was 8.31e-05 s⁻¹. The kon [1] was 164000 M⁻¹ s⁻¹ and the “EC50 (read off the curve)” value (murine CD22-ECD-His) was ~0.2 nM.
